Assay results taken from PubChem BioAssay AID1030 (National Center for Advancing Translational Sciences (NCATS), 2008).
Hit rate of the full screen: of about 220,000 compounds, about 16,000 (7.3%) were called active. Inconclusive means that the source gave no clear call. Such entries were picked first, then a sample of the others. The call rests on the fitted dose curve; in most records, active means well fitted inhibition curve with a large enough effect (not every such curve was filed as active); inconclusive means small, poorly fitted or top-dose-only effect, or another doubt; inactive means no such curve, though single readings can be large or run the other way. Potencies of inconclusive entries are left out as doubtful fits.

The compounds below were run against Aldehyde dehydrogenase 1A1 (Homo sapiens) (UniProt P00352) (assay: qHTS Assay for Inhibitors of Aldehyde Dehydrogenase 1 (ALDH1A1)). Conditions: Purified ALDH1A1, NADH fluorescence, propionaldehyde substrate; series mostly up to 75.3 µM.
UniProt P00352, sequence (P00352 whole entry, looked up): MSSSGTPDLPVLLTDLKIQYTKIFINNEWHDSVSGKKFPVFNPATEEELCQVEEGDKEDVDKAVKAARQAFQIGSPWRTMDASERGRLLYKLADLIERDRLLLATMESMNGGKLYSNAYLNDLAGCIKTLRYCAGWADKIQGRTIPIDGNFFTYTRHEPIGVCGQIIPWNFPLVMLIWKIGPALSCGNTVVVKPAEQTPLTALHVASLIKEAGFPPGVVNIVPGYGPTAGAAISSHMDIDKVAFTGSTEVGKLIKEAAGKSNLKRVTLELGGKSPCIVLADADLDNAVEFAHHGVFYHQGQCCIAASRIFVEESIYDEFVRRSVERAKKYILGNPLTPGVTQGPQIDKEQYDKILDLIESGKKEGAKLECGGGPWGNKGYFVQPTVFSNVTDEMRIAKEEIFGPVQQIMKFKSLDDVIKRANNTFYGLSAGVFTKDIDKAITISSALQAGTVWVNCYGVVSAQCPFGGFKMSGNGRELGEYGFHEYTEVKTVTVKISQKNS
Potency means the concentration at half of the fitted maximal effect; tags describe the fitted curve by direction and shape.
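Wherever activity, negative = inhibition is given: plate controls were no enzyme wells and a reference inhibitor.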

Row | Structure (SMILES) | Potency | activity, negative = inhibition
1 | O=C(CN1CC(c2ccccc2)CC1=O)NCc1ccc(F)cc1 (centres undefined) | inactive | 
2 | C=CC(N)=O | inactive | 
3 | COc1cc(C(=S)N2CCOCC2)ccc1O | active: 18.9 µM | 
4 | CCOc1ccc(-n2c(O)c(C=Nc3ccc(N(CC)CC)cc3)c(=O)[nH]c2=O)cc1 | inconclusive [inhibitor, partial curve] | 
5 | CN(C)C(Cc1ccccc1)C(=O)c1cccs1 (centres undefined) | inconclusive [inhibitor, single point] | 
6 | O=c1[nH]c(=S)n(C2CC2)c(O)c1/C=N/Nc1cccc2ccccc12 | active: 2.51 µM | 
7 | CN(C(=O)COC(=O)c1ccc([N+](=O)[O-])cc1Cl)C1CCCCC1 | inconclusive [inhibitor, single point] | 
8 | COc1ccc(C(=O)C2CCCN(C3CSCCSC3)C2)c(OC)c1 (centres undefined) | active: 14.1 µM | 
9 | O=c1[nH]c(=S)n(CCC2=CCCCC2)c(O)c1C=NCc1cccnc1 | inactive | 
10 | CCOC(=O)C1=C(C)OC(N)=C(C(=O)OCC)[C@@]12C(=O)N(CC(N)=O)c1ccccc12 | inactive | 
11 | CCOC(=O)c1c(NC(NC(=O)CF)C(Cl)(Cl)Cl)sc2c1CCCC2 (centres undefined) | inconclusive [inhibitor, single point] | 
12 | Cc1ccc(Cl)cc1N1CCN(C(=O)c2cn(C)c(=O)c3c2c2ccccc2n3C)CC1 | inconclusive [inhibitor, partial curve, poor fit] | 
13 | Cc1cccc(C)c1NC(=O)CN(C)CC(=O)Nc1ccc(C#N)c(Cl)c1 | inconclusive [inhibitor, single point] | 
14 | Cc1cc(C)cc(N2C(=O)NC(=O)/C(=C\C=C\c3ccco3)C2=O)c1 | inconclusive [inhibitor, single point] | 
15 | Nc1ccc(-c2ccc(N)c(Cl)c2)cc1Cl | inconclusive [inhibitor, single point] | 
16 | CC1(C)CSC(Nc2ccc(F)c(Cl)c2)=N1 | inactive | 
17 | COc1ccc(OC(=O)Nc2ccccc2)cc1 | inconclusive [inhibitor, single point] | 
18 | CCC(=NCc1ccco1)c1c(O)n(Cc2ccccc2)c(=O)[nH]c1=O | inconclusive [inhibitor, full curve] | 
19 | COc1cc2c3c(c1OC)-c1cc(O)ccc1CC3NCC2 (centres undefined) | inconclusive [inhibitor, single point] | 
20 | C/C=C(/C)C(=O)OC1CC[C@]2(C)C3CCC4[C@]5(O)CC(O)[C@]6(O)C(CN7CC(C)CCC7[C@]6(C)O)[C@]5(O)C[C@@]42O[C@]13O (some centres undefined) | inactive | 
21 | Cc1cc(N2CCOCC2)ccc1/C=C1\C(=O)NC(=O)N(c2ccccc2)C1=O | inconclusive [inhibitor, partial curve] | 
22 | CCc1ccc(CN2CCN(Cc3ccc(SC)cc3)CC2)cc1 | inactive | 
23 | Cc1cc(SCc2sc(-c3ccc(C(F)(F)F)c(F)c3)nc2C)ccc1OCC(=O)O | inconclusive [inhibitor, partial curve] | 
24 | Cc1[nH]c2ccc(Cl)cc2c1C1=CCNCC1 | inactive | 
25 | CCC(C)(C)n1nnnc1C(c1cccs1)N1CC=C(c2ccc(F)cc2)CC1 (centres undefined) | inconclusive [inhibitor, single point] | 

Row | Structure (SMILES) | Potency | activity, negative = inhibition
26 | O=c1c2ccccc2nc(/C=C\c2ccccc2[N+](=O)[O-])n1-c1ccccc1O | inconclusive [inhibitor, partial curve] | 
27 | CCOC(=O)C1OC1(C)c1ccccc1 (centres undefined) | inactive | 
28 | Clc1ccc2c(c1)C(c1ccccc1Cl)=NCc1nnc(N3CCN(CCSc4ccccc4)CC3)n1-2 | inconclusive [inhibitor, single point] | 
29 | Cc1ccccc1-n1c(O)c(/C=C2/C(c3ccccc3)=Nc3ccccc32)c(=O)[nH]c1=O | inconclusive [inhibitor, single point] | 
30 | ClC1=C(Cl)C2(Cl)C3C4C=CC(C4)C3C1(Cl)C2(Cl)Cl (centres undefined) | inactive | 
31 | CCCCn1c(O)c(C(CC)=NCCN2CCOCC2)c(=O)[nH]c1=O | inconclusive [inhibitor, single point] | 
32 | CCN(CC)c1ccc(N=Cc2c(O)n(-c3ccc(Cl)cc3)c(=O)[nH]c2=O)cc1 | inconclusive [inhibitor, partial curve] | 
33 | Cn1cnc([N+](=O)[O-])c1Sc1ccc([N+](=O)[O-])cc1 | active: 7.94 µM | 
34 | C[C@]12CN(CC[N+](C)(C)C)C[C@]1(C)[C@@H]1CC[C@@H]2O1 |  | inactive: -0.163% [at 13.5 µM]
35 | [O-][Cl+2]([O-])O | inconclusive [inhibitor, single point] | 
36 | Cc1cc(C=C2C(=O)N(C)C(=O)N(C)C2=O)c(C)n1-c1ccccc1 | inconclusive [inhibitor, full curve] | 
37 | CCOC(=O)c1c(/N=C/C2C(=O)NC(=S)NC2=O)sc(C)c1C | active: 20 µM | 
38 | CC/C=C\C/C=C\C/C=C\C/C=C\C/C=C\CCCC(=O)NCC(=O)O | inactive | 
39 | S=c1[nH]nc(C2CC2)n1Cc1ccccc1 | active: 14.1 µM | 
40 | Cc1ccc(Oc2cnn(-c3ccccc3)c(=O)c2Br)cc1 | inconclusive [inhibitor, partial curve] | 
41 | Cc1c(NP(=S)(C(C)(C)C)C(C)(C)C)c(=O)n(-c2ccccc2)n1C | inconclusive [inhibitor, partial curve] | 
42 | CCC[C@@H]1CC2=CC(=O)CC[C@]2(C)[C@@H]2CC[C@@]3(C)[C@H](CC[C@]3(O)CCC(=O)O)[C@H]12 | inactive | 
43 | O=C(CSC1c2ccccc2-c2ccccc21)N/N=C/c1ccccc1O | inactive | 
44 | CC1CC(C)CN(CC(=O)c2ccc(OC(F)F)cc2)C1 (centres undefined) | active: 1.26 µM | 
45 | CC1(C)CC(=O)C(C=NCCN2CCN(C(=O)Cc3ccc(F)cc3)CC2)=C(O)C1 | active: 17.8 µM | 
46 | N#Cc1c(Cl)nc(Cl)c2c1CCN(Cc1ccccc1)C2 | inconclusive [inhibitor, partial curve] | 
47 | C=CCN1C(=O)NC(=O)/C(=C/c2ccc(OC)c(COc3ccc(NC(C)=O)cc3)c2)C1=O | inconclusive [inhibitor, single point] | 
48 | COc1ccc(NC(=O)Cn2c3ccccc3c3nc4n(c(=O)c32)CCS4)cc1 | inconclusive [inhibitor, single point] | 
49 | Cc1cccc(N2C(=O)NC(=O)/C(=C\c3cnn(-c4ccccc4)c3)C2=O)c1 | active: 7.08 µM | 
50 | O=Cc1cn(Cc2cccc(F)c2)c2ccccc12 | active: 0.562 µM | 

Row | Structure (SMILES) | Potency | activity, negative = inhibition
51 | COc1ccc(CC(=O)Nc2ccc3c(C(F)(F)F)cc(=O)oc3c2)cc1OC | active: 7.94 µM | 
52 | O=C(Cl)/C=C/C(=O)Cl | inactive | 
53 | O=c1[nH]c(=S)n(Cc2ccc(F)cc2)c(O)c1C=NCC1CCCO1 (centres undefined) | inconclusive [inhibitor, partial curve] | 
54 | CN[C@@H]1C[C@H]2O[C@@](C)([C@@H]1OC)n1c3ccccc3c3c4c(c5c6ccccc6n2c5c31)C(=O)NC4 |  | inactive: -5.83% [at 13.5 µM]
55 | C=CCOC(=O)COc1cc(C)cc2oc(=O)c3c(c12)CCC3 | inconclusive [inhibitor, partial curve] | 
56 | CCN1CCN(c2cc(N3CCCC3)c([N+](=O)[O-])cc2F)CC1 | inconclusive [inhibitor, partial curve] | 
57 | FC(F)(F)c1ccc2c(c1)ncn2C1CCN(Cc2nnnn2C2CCCCC2)CC1 | active: 0.562 µM | 
58 | Cc1noc(C)c1CSc1nc2cc(S(=O)(=O)N3CCOCC3)ccc2o1 | active: 3.55 µM | 
59 | CCOC(=O)c1c(C)n(Cc2ccco2)c2ccc(O)cc12 | active: 3.98 µM | 
60 | O=C(NCc1ccco1)c1ccc(Cn2c(=O)c3ccccc3n(Cc3cccc(F)c3)c2=O)cc1 | inconclusive [inhibitor, single point] | 
61 | Nc1cc(Cl)ccc1Cl | inactive | 
62 | O=c1c2ccccc2nc(CN2CCCCCC2)n1-c1ccc(F)cc1 | inconclusive [inhibitor, single point] | 
63 | C[C@@H](CO)NC(=O)[C@@H]1C=C2c3cccc4[nH]cc(c34)C[C@H]2N(C)C1 | inconclusive [inhibitor, partial curve] | 
64 | CCCCCn1c(=O)c(C(=O)Nc2ccncc2)c(O)c2ccccc21 | inconclusive [inhibitor, full curve] | 
65 | O=[N+]([O-])c1ccc(N2CCCC2)c2ncccc12 | inactive | 
66 | COc1ccc(S(=O)(=O)NC(CC(=O)N2CCc3ccccc32)c2ccco2)cc1 (centres undefined) | inconclusive [inhibitor, partial curve] | 
67 | CN(C)c1ncc(/C=C2/C(=O)NC(=S)N(C3CCCCC3)C2=O)cn1 | inconclusive [inhibitor, single point] | 
68 | O=C(NCc1cccs1)c1ccc(Br)o1 | inconclusive [inhibitor, partial curve] | 
69 | O=C(Cc1ccccc1)N1CCN(C2CCCC2)CC1 | inconclusive [inhibitor, single point] | 
70 | Fc1ccc2c(c1)nnn2C1CCN(Cc2nnnn2C2CCCCC2)CC1 | active: 12.6 µM | 
71 | CCN1CCN(c2ncnc3ccc(Br)cc23)CC1 | inconclusive [inhibitor, single point] | 
72 | O=P(OCCCl)(OCCCl)OCCCl | active: 28.2 µM | 
73 | CCOC(=O)c1c(C)n(Cc2ccco2)c2ccc(OC)cc12 | inactive | 
74 | C[C@@H]1O[C@H](O[C@@H]2C[C@@H](O)[C@]3(CO)[C@H]4[C@H](O)C[C@]5(C)[C@@H](C6=CC(=O)OC6)CC[C@@]5(O)[C@@H]4CC[C@]3(O)C2)[C@@H](O)[C@H](O)[C@H]1O | inactive | 
